According to the RNAGym collection of RNA variant scans (doi:10.1073/pnas.2313332121):
Variants at the background level are over-represented here.

B1: TPR 5TU (parent)
chain: GGAUCUUCUCGAUCUAACAAAAAAGACAAAUCUGCCACAAAGCUUGAGAGCAUCUUCGGAUGCAGAGGCGGCAGCCUUCGGUGGCGCGAUAGCGCCAACGUUCUCAACUAUGACACGCAAAACGCGUGCUCCGUUGAAUGGAGUUUAUCAUG

Variants of: B1
Assay: polymerase ribozyme fitness, log enrichment relative to wild type (log ratio); higher = more active; in vitro selection for triplet polymerase activity
In short: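 A heterodimeric triplet polymerase ribozyme had each of its subunits mutagenized by PCR into a library, which was transcribed. One round of in vitro selection, done in triplicate, annealed each library with a biotinylated primer, its partner subunit and triplets, then incubated it frozen at −7 °C before gel excision of extended constructs, streptavidin-bead capture and RT-PCR. Fitness is the logarithm of genotype enrichment relative to wild-type enrichment, based on Illumina sequencing of inputs and outputs and inverse-variance-weighted replicate averages. A base-2 logarithm is used, and genotypes were kept only with ≥10 input reads and ≥1 read per output.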

Variant | polymerase ribozyme fitness (log ratio)
C43U G80A G94A A115G | ≤ -4.2
C43U G83A | ≤ -4.2
C43U G84A C103A U104C G141C | ≤ -4.2
C43U G84A U104G C132G U135A A137G G143A G152C | ≤ -4.2
C43U G86U A110G | ≤ -4.2
C43U G86U C125A | ≤ -4.2
C43U G88C A115G | ≤ -4.2
C43U U44A U77C C87A G140A | ≤ -4.2
C43U U45A C63U G81A C95G U111A | ≤ -4.2
C43U U45C C72U U77G G88U G92U C99G | ≤ -4.2
C43U U55A C87U | ≤ -4.2
C43U U55A U146G | ≤ -4.2
C43U U56A A66C C75A C85G | ≤ -4.2
C43U U56A C87A G152U | ≤ -4.2
C43U U56G | ≤ -4.2
C43U U56G A110C C116G | ≤ -4.2
C43U U61A C96A | ≤ -4.2
C43U U61A G80A G94U A106C A122U | ≤ -4.2
C43U U61G A64C U77G C85U A110U C116G | -4.02
C43U U61G A73G G80C G81A C95G U104C A106U A107G | ≤ -4.2
C43U U127G | ≤ -4.2
C43U U134A | ≤ -4.2
U44A A47C C76A C93U C125G | ≤ -4.2
U44A A47C U55A C76U C87A A91G A107U G126A U145A | ≤ -4.2

Variant | polymerase ribozyme fitness (log ratio)
U44A A47G U55A U90G C96U A115G | ≤ -4.2
U44A A49C | -4.06
U44A A49C U55A C96U A106G A122G G141U | ≤ -4.2
U44A A49G | ≤ -4.2
U44A A49G C54A U82C G124U G140A | ≤ -4.2
U44A A49G C57U C93U C95A G141U | ≤ -4.2
U44A A49U C72G C79G G92U A150G | ≤ -4.2
U44A A52C C85U A106U G126U C131G | ≤ -4.2
U44A A52C G83C C95U U135G U148A | ≤ -4.2
U44A A52G C85U C96U | ≤ -4.2
U44A A52G G94U G117U A150G | ≤ -4.2
U44A A64C C85U | ≤ -4.2
U44A A66C G81A C96G C108A G117U U146G | ≤ -4.2
U44A A66G U77C G84A A107U C118U U134A | ≤ -4.2
U44A A66U C76U G88U C96U | ≤ -4.2
U44A A66U C105G C118A A137U | ≤ -4.2
U44A A73U C105G A120G | ≤ -4.2
U44A A89U G92C C103G | ≤ -4.2
U44A A91C | ≤ -4.2
U44A A91G U135C U144C | ≤ -4.2
U44A A91U C132G U146A | ≤ -4.2
U44A C51U C76U A106U A110G | ≤ -4.2
U44A C54A C79U C93U | ≤ -4.2
U44A C54A U77A G92C C118A A120G G136C G140A | ≤ -4.2

Variant | polymerase ribozyme fitness (log ratio)
U44A C54G C57U G86C | ≤ -4.2
U44A C54U C57G C72G G84C C95G C96U | ≤ -4.2
U44A C54U C75U G92C G94A U148G | ≤ -4.2
U44A C57A G70U G80A A89U C95G C125G G126A G143U | ≤ -4.2
U44A C57U | ≤ -4.2
U44A C63A G68U G86C A121U | ≤ -4.2
U44A C69A A138U G140C | ≤ -4.2
U44A C72G U77G U90G G141U | ≤ -4.2
U44A C75U C76G U77G G92U A115U G140A G152C | ≤ -4.2
U44A C75U G92A C123U U145C | ≤ -4.2
U44A C75U U82G U135G | ≤ -4.2
U44A C76A A91G | ≤ -4.2
U44A C76A U82G G100A C103G A137G | ≤ -4.2
U44A C79G C85A U111G G133C | ≤ -4.2
U44A C79U C87A | ≤ -4.2
U44A C85A G92A A107U G128U | ≤ -4.2
U44A C85G U90C U104G | ≤ -4.2
U44A C87A | ≤ -4.2
U44A C87A G126U | ≤ -4.2
U44A C87A U90C C93G C105G A122G | ≤ -4.2
U44A C87U G94U C96U | ≤ -4.2
U44A C93A U101C A113U G117A U134A | ≤ -4.2
U44A C93U C99A U111G A138G G152U | -3.36
U44A C96U | ≤ -4.2

Variant | polymerase ribozyme fitness (log ratio)
U44A C103A | ≤ -4.2
U44A C105G | ≤ -4.2
U44A C125G | ≤ -4.2
U44A C131G | ≤ -4.2
U44A G46C C57A U61C C69A A89G C123U | ≤ -4.2
U44A G46C G48U U55A C87G A119C A137C G140U | ≤ -4.2
U44A G48A G88C U101G | ≤ -4.2
U44A G48C G59A U82C C116G C123U U134C | ≤ -4.2
U44A G48C G81A A89G C108G C118G C125U | ≤ -4.2
U44A G50A U77A U78A C93G A115C G133A G141A | -4.14
U44A G50C G81A U135A | ≤ -4.2
U44A G50U U56A G70A C108A | ≤ -4.2
U44A G58C G92C G141U C149A | ≤ -4.2
U44A G58U G70C C76A A91G A115C | ≤ -4.2
U44A G59C C96U C108G U135G | ≤ -4.2
U44A G62A G84A U134A | ≤ -4.2
U44A G67A C87A G143A | ≤ -4.2
U44A G67U | ≤ -4.2
U44A G68A C96U A119U C149A | ≤ -4.2
U44A G68U G92U A98G C99G | ≤ -4.2
U44A G74A | ≤ -4.2
U44A G81A C95G C96U A110U A138C | ≤ -4.2
U44A G86U | ≤ -4.2
U44A G88A A120G | ≤ -4.2

Variant | polymerase ribozyme fitness (log ratio)
U44A G88U C93G | ≤ -4.2
U44A G92A C93A G141C | ≤ -4.2
U44A G92A G141U | ≤ -4.2
U44A G92C C132A | ≤ -4.2
U44A G92U C96U C105A G126C | ≤ -4.2
U44A G94C A107G G140U G143C U145G | ≤ -4.2
U44A U45A C54G G86A A91U G100C A110U G117U | ≤ -4.2
U44A U45A G46C G58C G83C | ≤ -4.2
U44A U45G C76A C93U A121U U127C U148C | ≤ -4.2
U44A U53A G86U C132U U135G | ≤ -4.2
U44A U53C C85U C108G A113U U145C | ≤ -4.2
U44A U53C G86A A147C | ≤ -4.2
U44A U53G G67A U78A G81C G88A G92C A138U | ≤ -4.2
U44A U55A C69G G86U G141A | -4.2
U44A U55A C125G | ≤ -4.2
U44A U55A C132U | ≤ -4.2
U44A U55A G81U C95G G141C | ≤ -4.2
U44A U55A U77C C87U U148G | ≤ -4.2
U44A U56G G83U A89U C95A A98C C103G A107G | ≤ -4.2
U44A U61A C93G A113U | ≤ -4.2
U44A U61G A66C A91U C132U G141C | ≤ -4.2
U44A U61G A66U C87G U90A C95U | ≤ -4.2
U44A U77A C95U | ≤ -4.2
U44A U82C A113G | ≤ -4.2

Variant | polymerase ribozyme fitness (log ratio)
U44A U104A A115G | ≤ -4.2
U44A U134A | ≤ -4.2
U44A U139A C149A A150C | ≤ -4.2
U44A U144A | ≤ -4.2
U44C A47G G83A A97G A107G A110C C114G | ≤ -4.2
U44C A73U G92A C114U | ≤ -4.2
U44C A89U C103A A120U | ≤ -4.2
U44C C54A C114U | ≤ -4.2
U44C C57A U77G A89C A106U G124A G143U G152A | ≤ -4.2
U44C C87U U104C A122C | ≤ -4.2
U44C C99G | ≤ -4.2
U44C G46U C93U G140A U148G | ≤ -4.2
U44C G50U U101G C131U U139C C149U | ≤ -4.2
U44C G68C G83C C108G | ≤ -4.2
U44C G86C | ≤ -4.2
U44C G86U A142U | ≤ -4.2
U44C G86U C103G G140A U148A | ≤ -4.2
U44C G92C A138G G140A | ≤ -4.2
U44C G94A | ≤ -4.2
U44C U55A G59A G83A C87U G124C | ≤ -4.2
U44C U77A G84A G136U U144C G152U | ≤ -4.2
U44C U77G C85G | ≤ -4.2
U44G A47G C69U U82G G92U | ≤ -4.2
U44G A47G C85U C108U A121U | ≤ -4.2

Variant | polymerase ribozyme fitness (log ratio)
U44G A47G G62A G68C C69U | ≤ -4.2
U44G A49C G50C U82A G94C | ≤ -4.2
U44G A49U G84A U90G C131U U135G G136A | ≤ -4.2
U44G A52C C96U U127C | ≤ -4.2
U44G A52C G92U G141A | ≤ -4.2
U44G A52G C85G | ≤ -4.2
U44G A52G U53A C75A | ≤ -4.2
U44G A60U A115C | ≤ -4.2
U44G A64C G65U C69U G86A | ≤ -4.2
U44G A66G C87G | ≤ -4.2
U44G A73G A91G A107C | ≤ -4.2
U44G A73U C85U G124U U134C U135G C149G | ≤ -4.2
U44G A89G G92C C96G U145G | ≤ -4.2
U44G A91C G143U | ≤ -4.2
U44G A97U A121U G143A | ≤ -4.2
U44G A119U U145G | ≤ -4.2
U44G C51A A73C C95U U101G | ≤ -4.2
U44G C51U U82G C99G A115C G124A G128U G143C | ≤ -4.2
U44G C54A G86U A106G | ≤ -4.2
U44G C54G A64U U135A A150U | ≤ -4.2
U44G C57U C95U C99A G133C U145G | ≤ -4.2
U44G C75G G88C | ≤ -4.2
U44G C108U A120U | ≤ -4.2
